These are yes or no findings as the source states them, for the method shown. For some assays here: In cells and extracts the contact can be indirect. Some binding calls cover weakened binding; strength is not graded here. For some assays here: Where a sequence is shown, tags or fusion partners need not be part of it. Values belong to the binder of their own block, whether it stands above or below them.
Experiments:
[1] = target: T1, T25-AtcC (Shewanella oneidensis MR-1) (UniProt Q8EFW9); experiment: two-hybrid
T1 sequence: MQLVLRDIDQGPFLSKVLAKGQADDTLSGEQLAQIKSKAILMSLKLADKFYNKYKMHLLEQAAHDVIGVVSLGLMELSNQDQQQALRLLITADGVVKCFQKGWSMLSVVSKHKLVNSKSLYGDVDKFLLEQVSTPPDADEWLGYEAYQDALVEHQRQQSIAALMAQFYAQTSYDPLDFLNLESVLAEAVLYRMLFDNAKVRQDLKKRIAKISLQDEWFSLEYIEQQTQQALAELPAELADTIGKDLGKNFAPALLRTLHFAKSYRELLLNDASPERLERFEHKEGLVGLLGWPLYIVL

[2] = target: T2, T25-AtcA (Shewanella oneidensis MR-1) (UniProt Q8EFW6); experiment: two-hybrid
T2 sequence: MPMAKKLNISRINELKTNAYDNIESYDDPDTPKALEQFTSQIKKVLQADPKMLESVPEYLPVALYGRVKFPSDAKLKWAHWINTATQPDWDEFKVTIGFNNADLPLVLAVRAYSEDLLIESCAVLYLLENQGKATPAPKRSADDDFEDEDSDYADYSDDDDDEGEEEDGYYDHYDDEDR

[3] = target: T3, T25-AtcB (Shewanella oneidensis MR-1) (UniProt Q8EFW7); experiment: two-hybrid
T3 sequence: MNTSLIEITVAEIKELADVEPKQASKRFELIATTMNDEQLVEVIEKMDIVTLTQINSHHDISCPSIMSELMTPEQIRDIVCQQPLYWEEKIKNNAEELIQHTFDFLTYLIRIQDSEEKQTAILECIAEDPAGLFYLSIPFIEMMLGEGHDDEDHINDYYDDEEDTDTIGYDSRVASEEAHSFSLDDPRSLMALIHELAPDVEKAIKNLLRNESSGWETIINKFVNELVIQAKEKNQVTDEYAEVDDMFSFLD

[4] = target: T4, CBP-AtcB (Shewanella oneidensis MR-1) (UniProt Q8EFW7); experiment: pull-down
T4 sequence: T3 sequence

[5] = target: T5, Strep-HtpG (Shewanella oneidensis MR-1) (UniProt Q8EFF7); experiment: pull-down; both purified
T5 sequence: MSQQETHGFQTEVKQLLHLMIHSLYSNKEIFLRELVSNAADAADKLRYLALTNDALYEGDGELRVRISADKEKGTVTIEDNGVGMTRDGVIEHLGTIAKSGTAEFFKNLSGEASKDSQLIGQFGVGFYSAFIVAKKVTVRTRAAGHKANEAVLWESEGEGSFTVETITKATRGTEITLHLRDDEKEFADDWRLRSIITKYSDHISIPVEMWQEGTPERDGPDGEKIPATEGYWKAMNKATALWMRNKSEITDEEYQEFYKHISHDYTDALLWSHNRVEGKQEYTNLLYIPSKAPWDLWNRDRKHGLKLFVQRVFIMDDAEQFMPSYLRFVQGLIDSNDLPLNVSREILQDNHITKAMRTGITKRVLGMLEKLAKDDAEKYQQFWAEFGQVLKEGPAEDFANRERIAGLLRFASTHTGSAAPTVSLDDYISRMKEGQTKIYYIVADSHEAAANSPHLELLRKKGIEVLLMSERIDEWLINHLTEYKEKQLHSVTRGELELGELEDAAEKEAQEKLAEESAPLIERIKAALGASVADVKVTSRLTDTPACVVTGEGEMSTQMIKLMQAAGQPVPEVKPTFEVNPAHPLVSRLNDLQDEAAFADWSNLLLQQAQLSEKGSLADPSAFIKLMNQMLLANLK

[6] = target: T6, AtcC-6His (SO_1846) (Shewanella oneidensis MR-1, UniProt Q8EFW9 1-298); experiment: ITC; 25 °C, buffer B (50 mM Tris-HCl, 100 mM KCl, 10% glycerol, 1 mM DTT); 285 µM ligand titrated into 36 µM AtcC in the cell; one set of sites model; both purified
T6 construct: AtcC (SO_1846) of Shewanella oneidensis MR-1, 34 kDa; pBad33-AtcC was made by moving the insert of pET-AtcC, so both give AtcC with a C-terminal 6-His tag; also called AtcC with a 6His-tag; not shown: His6, C-terminal, kept
T6 sequence (looked up): T1 sequence

- binding [1]: binds
B1: pep21, synthetic peptide corresponding to the last 21 amino acids of AtcJ (peptide)
peptide: NNVIVTDPNSAMRELWDQFYP
notes: last 21 amino acids of AtcJ (SO_1850) of Shewanella oneidensis (94 amino acids; N74 is the first residue of the extension); The methods sentence says 'last 21 amino acids of AtcC'; results and legends say AtcJ; also called the peptide

- binding [2]: no binding
B4: Strep-AtcB (natural protein, Shewanella oneidensis MR-1, UniProt Q8EFW7 1-252, looked up)
chain: T3 sequence
notes: AtcB (SO_1848) of Shewanella oneidensis MR-1, 29 kDa; also called AtcB with a Strep-tag; purified AtcB

- binding [2]: no binding
- binding [1]: binds
- binding [3]: no binding
B5: AtcJ-6His (Adaptation to cold protein J, SO_1850) (natural protein, Shewanella oneidensis MR-1, UniProt Q8EFW5 1-94, looked up)
chain: MINHFSVLGIKPSAKEDDIKKAYRRLSNKYHPDKLLGASDEEKEQASQQLERVKKAYEVLSDPKLRNAFIRDFNNVIVTDPNSAMRELWDQFYP
notes: AtcJ (SO_1850) of Shewanella oneidensis MR-1, a 94-amino acid J-domain protein (J-domain 1-73 and a C-terminal extension of 21 amino acids); also called wild-type AtcJ; AtcJ-WT

Continued, binder first:

B2: T18-AtcC (protein, UniProt Q8EFW9 1-298)
chain: T1 sequence
- binding [2]: no binding
- binding [3]: binds

B3: AtcC-6His (SO_1846) (protein, UniProt Q8EFW9 1-298)
chain: T1 sequence
- binding [4]: binds
- binding [5]: no binding

B6: T18-AtcJΔC (domain or fragment, UniProt Q8EFW5 1-73)
chain: MINHFSVLGIKPSAKEDDIKKAYRRLSNKYHPDKLLGASDEEKEQASQQLERVKKAYEVLSDPKLRNAFIRDF
- binding [1]: no binding

B7: AtcJΔC (AtcJ lacking the last 21 amino acids), purified (domain or fragment, UniProt Q8EFW5 1-73)
chain: B6 chain
- binding [6]: no binding (tested: 285 µM AtcJΔC titrated into 36 µM AtcC)
